# According to the supplement of paper PMC10126150:
# Sequences with one replicate were seen in a single cluster, so their values are uncertain.
# System: ATP
# Experiment: switch fluorescence ratio, 500 uM ATP over buffer (Cy3 cluster intensity, sum of 5 cycles each) (fold (ratio)); higher = stronger signal-on switching upon ATP binding; sequences stand for … in TCGTCGGCAGCGTCAGATGTGTATAAGAGACAGTTTTTTTTTTTTTTTTTTTTTTTTT…TC
# Conditions: aptamer strand: ATP DNA aptamer (quencher-CACCTGGGGGAGTATTGCGGAGGAAGG + anchor), 100 nM annealed; ATP concentration: 500 uM; one replicate
# In short: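 Cy3-labelled switching-strand clusters on a modified Illumina MiSeq flow-cell were annealed to 100 nM quencher-labelled ATP aptamer and imaged first in selection buffer, then after 15 min with 500 uM ATP at 22 °C. NaOH stripping and re-annealing separated each of five buffer/ATP cycles, and clusters outside 100-1000 RFU were excluded. The fluorescence ratio sums target-cycle Cy3 intensity over buffer-cycle Cy3 intensity per cluster and averages it per switch-domain sequence.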
# 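Note: ATP exposure 15 min at 22 °C before imaging.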
sequence,measurement,value
AAGCACAAGG,switch fluorescence ratio,1.13
AGGTAGGACA,switch fluorescence ratio,0.979
GGCTAGGATA,switch fluorescence ratio,0.993
GCGGGAAGGT,switch fluorescence ratio,0.95
ACATGTCGTC,switch fluorescence ratio,0.971
TGTGGATGTT,switch fluorescence ratio,1.03
CCAAGTGATG,switch fluorescence ratio,1.04
GAGAATAGAA,switch fluorescence ratio,0.99
AGTCCAAGT,switch fluorescence ratio,0.983
GCCTCACACT,switch fluorescence ratio,0.961
CTGCGAGTAT,switch fluorescence ratio,1.03
TTCAAGGGC,switch fluorescence ratio,0.982
AGTGAACACT,switch fluorescence ratio,1.01
CGGTTTGTGC,switch fluorescence ratio,1.06
TCTTTGATGC,switch fluorescence ratio,1.15
GTAATAACCA,switch fluorescence ratio,1.02
CAATGACTCA,switch fluorescence ratio,1.03
GCAAGTCGGA,switch fluorescence ratio,1.01
GTTACATCAG,switch fluorescence ratio,1.06
CCTCGGGATG,switch fluorescence ratio,1.28
TCATAGGGAC,switch fluorescence ratio,1.06
TAGCATTTAG,switch fluorescence ratio,1.04
AGTCCCGTGG,switch fluorescence ratio,0.987
CAGGAGACAG,switch fluorescence ratio,0.944
AATAGCTCTG,switch fluorescence ratio,0.957
TACAAGTGGA,switch fluorescence ratio,1.03
GCAACCTCGC,switch fluorescence ratio,1.15
GTCAGTGTT,switch fluorescence ratio,1
CTTGTGATAA,switch fluorescence ratio,1.03
GGGTTGCTCT,switch fluorescence ratio,0.979
GTATGTCTCT,switch fluorescence ratio,0.999
TGTTGCATCT,switch fluorescence ratio,0.935
GGTAATGGT,switch fluorescence ratio,0.953
ACGGGCGTGC,switch fluorescence ratio,0.989
TCTCGATTCA,switch fluorescence ratio,1.07
TAGGTTGTA,switch fluorescence ratio,0.988
CTGACTGTCC,switch fluorescence ratio,1.05
AGCAATGAAG,switch fluorescence ratio,1.28
AGCTGAGATC,switch fluorescence ratio,0.987
TCATTAAACT,switch fluorescence ratio,1.03
AGTTTTGTGG,switch fluorescence ratio,1.04
CAGTCTGTTA,switch fluorescence ratio,1.06
TATGATCAGC,switch fluorescence ratio,1.02
AATGCTCCTT,switch fluorescence ratio,1.05
GGTGGTATTA,switch fluorescence ratio,0.982
CGCCCCGGCT,switch fluorescence ratio,0.992
GGATTGCCGG,switch fluorescence ratio,0.972
CACTATTGTA,switch fluorescence ratio,1
GACGGTTTCG,switch fluorescence ratio,0.954
TCCGGAGGT,switch fluorescence ratio,1.08
GCTGGTAGTC,switch fluorescence ratio,1.04
CGGGGTAACA,switch fluorescence ratio,1.05
GTGGATTACT,switch fluorescence ratio,1.02
GACGTACAGC,switch fluorescence ratio,1.8
GTCACGTCCT,switch fluorescence ratio,0.992
ATTGTTACCG,switch fluorescence ratio,0.983
CGAGGGGCGA,switch fluorescence ratio,1.03
ACCCTGCCCA,switch fluorescence ratio,1.03
TAATGATATT,switch fluorescence ratio,1.02
AACTGTATTT,switch fluorescence ratio,1.08
CCTGGTCTCT,switch fluorescence ratio,0.982
GCAGTAAGTA,switch fluorescence ratio,1.02
GTCGACGGC,switch fluorescence ratio,1.01
CACAGAAGGG,switch fluorescence ratio,1.01
AATCGGTATG,switch fluorescence ratio,0.991
GGGAAGTGGA,switch fluorescence ratio,1.05
TACAAATTTG,switch fluorescence ratio,0.977
CAGGTCTTAG,switch fluorescence ratio,1.03
CTTGGTTACC,switch fluorescence ratio,1.05
GCTTATACAT,switch fluorescence ratio,1.02
GGATTGGAGA,switch fluorescence ratio,0.936
GACTTAGGTG,switch fluorescence ratio,1.04
TGCTGAGGTC,switch fluorescence ratio,0.949
CAGGGCATGA,switch fluorescence ratio,1.07
CATGCGCGGT,switch fluorescence ratio,1.54
TAGCACTTTG,switch fluorescence ratio,0.99
AATGCGTTTG,switch fluorescence ratio,1
CAAGTATAGA,switch fluorescence ratio,1
AGGGTCCAGA,switch fluorescence ratio,0.952
AGTGCACGAC,switch fluorescence ratio,1.02
CGCGCGTCT,switch fluorescence ratio,0.999
TCCTCCTGAC,switch fluorescence ratio,1.91
TAATGAGTAG,switch fluorescence ratio,0.979
TTTCTTCAGT,switch fluorescence ratio,0.996
GAGGAACGG,switch fluorescence ratio,0.981
AGTTCCTTCT,switch fluorescence ratio,1.06
AACGGATACT,switch fluorescence ratio,1.19
TTGATCTTGT,switch fluorescence ratio,0.963
GATTGTGTC,switch fluorescence ratio,0.947
GCCGTGCCCC,switch fluorescence ratio,1.02
CTTTGCGAT,switch fluorescence ratio,1.69
ATGGAATTTA,switch fluorescence ratio,1
TGAAATCTCC,switch fluorescence ratio,2.37
CTTCGTGTCC,switch fluorescence ratio,1.11
CGTAAGGGTC,switch fluorescence ratio,1.35
TTTTCGTCAC,switch fluorescence ratio,1.23
GACACTGGGG,switch fluorescence ratio,1.04
CTGCACATGA,switch fluorescence ratio,1.43
TCGCCGGGAA,switch fluorescence ratio,1.03
GCTACACGAT,switch fluorescence ratio,1.19
AAACGGTTGT,switch fluorescence ratio,1.1
TTGATACTC,switch fluorescence ratio,1.25
AGCCAACAGT,switch fluorescence ratio,1.03
CCAGACTCTT,switch fluorescence ratio,1.02
TGTCTAAAGG,switch fluorescence ratio,1.01
CAGAGCTACC,switch fluorescence ratio,1.18
TTTGCGAAAT,switch fluorescence ratio,0.972
TCCATGACGT,switch fluorescence ratio,0.976
CGTTTAGTTA,switch fluorescence ratio,0.974
TGCGGTAAGC,switch fluorescence ratio,1
CTGGAGTTAT,switch fluorescence ratio,1.49
AAATCCTGTT,switch fluorescence ratio,1.18
TATTCCATTG,switch fluorescence ratio,0.98
TAATTATTGC,switch fluorescence ratio,1
CTAGGGTCAC,switch fluorescence ratio,0.984
AACCGTTAGG,switch fluorescence ratio,0.991
TATGGTTTAT,switch fluorescence ratio,0.945
GTGGTCTGCT,switch fluorescence ratio,1
AATGCGTTGA,switch fluorescence ratio,1.04
AGTCGGCCGA,switch fluorescence ratio,1.04
CGATGCGGTT,switch fluorescence ratio,1.02
TTCGTACATT,switch fluorescence ratio,0.978
CTGGAACATA,switch fluorescence ratio,1.03
TCCCAACGGA,switch fluorescence ratio,1.06
GGATGCTAGT,switch fluorescence ratio,0.962
AAAATTGAAT,switch fluorescence ratio,0.935
CCAATTGGCG,switch fluorescence ratio,1.02
ATCGCTTGAA,switch fluorescence ratio,0.983
GTCGCTGCGG,switch fluorescence ratio,1.01
TACACTAATA,switch fluorescence ratio,1.06
GGTACTTTGA,switch fluorescence ratio,1.1
TTATGGGGTC,switch fluorescence ratio,0.961
TTAAAAGG,switch fluorescence ratio,0.936
TAGCATACCG,switch fluorescence ratio,1.06
TTCAACCTCG,switch fluorescence ratio,1.04
TATCGTGTAT,switch fluorescence ratio,1.02
GCAGTTACGG,switch fluorescence ratio,1.07
CATATTCTG,switch fluorescence ratio,0.976
AATAATGTGT,switch fluorescence ratio,0.98
GAGGTAGGAT,switch fluorescence ratio,1
AATTGTGCAG,switch fluorescence ratio,0.946
ATTCATACTT,switch fluorescence ratio,0.975
GTGGAGTAGT,switch fluorescence ratio,1.02
CCCCGAGGAC,switch fluorescence ratio,2.54
TGCCACTGCA,switch fluorescence ratio,1.03
GGGAAACTCA,switch fluorescence ratio,1.29
AGGCGGTTCG,switch fluorescence ratio,0.989
CTTTCGTGTT,switch fluorescence ratio,1.01
TGCGTATCTT,switch fluorescence ratio,1.05
GCCGAAAAAT,switch fluorescence ratio,0.972
TACAGCGCGA,switch fluorescence ratio,1.14
TCCAGTTCGG,switch fluorescence ratio,1.02
GCGTCACACG,switch fluorescence ratio,0.988
CCTTCAGGCA,switch fluorescence ratio,1.14
TACTGGGATT,switch fluorescence ratio,1.02
GACGGAAGGT,switch fluorescence ratio,1.07
ATTCCTTAGA,switch fluorescence ratio,1.01
